# The supplement of paper PMC3334620
# The full ranking holds about 33,000 sequences; the median of “E-score (-0.5 to 0.5)” is about -0.016, and the highest 2% start at about 0.32. This is one part of the list.
# Molecular target: T1, Stp1 (UniProt B3LFK1)
# T1 sequence: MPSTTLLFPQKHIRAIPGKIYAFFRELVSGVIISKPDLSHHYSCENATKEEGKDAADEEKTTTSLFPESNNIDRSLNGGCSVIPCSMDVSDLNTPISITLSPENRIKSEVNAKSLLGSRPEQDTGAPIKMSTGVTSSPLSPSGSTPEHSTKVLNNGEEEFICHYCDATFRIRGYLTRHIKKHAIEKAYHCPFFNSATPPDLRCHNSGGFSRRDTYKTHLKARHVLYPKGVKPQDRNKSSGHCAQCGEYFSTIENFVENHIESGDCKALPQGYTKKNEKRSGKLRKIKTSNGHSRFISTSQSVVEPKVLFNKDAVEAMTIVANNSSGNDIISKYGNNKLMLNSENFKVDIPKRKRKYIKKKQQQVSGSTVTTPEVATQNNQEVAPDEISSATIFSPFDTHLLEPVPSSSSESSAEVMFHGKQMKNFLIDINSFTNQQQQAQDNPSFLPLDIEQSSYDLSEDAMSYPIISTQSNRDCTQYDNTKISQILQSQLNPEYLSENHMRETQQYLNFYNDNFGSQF
# Assay: PBM E-score (8-mer binding enrichment) (E-score (-0.5 to 0.5)); higher = stronger / more preferred TF binding; most listed sequences are background and not binding sites
# Conditions: protein concentration: 200 nM; construct: GST-full length
# How it was run: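 PURExpress in vitro transcription/translation supplied GST-tagged yeast transcription factors, either full-length or DNA-binding domain. Applied at about 100-200 nM to universal all-10-mer Agilent arrays double-stranded by primer extension, the bound protein was detected with fluorescent anti-GST. E-scores, modified Wilcoxon-Mann-Whitney statistics, were given by the Universal PBM Analysis Suite to ungapped eight-base words pooled with their reverse complements after masliner normalisation.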
row,Sequence,PBM E-score
1,CGCTGGAG,-0.107
2,CACGAACG,0.115
3,ATGATGTA,0.0319
4,AGCACATA,0.0458
5,ATTTCCCC,-0.176
6,GATGCACA,-0.0773
7,GTTGTCGA,-0.101
8,ACTCGGGC,0.0689
9,CCGGAGAG,-0.196
10,CTAACCGC,-0.132
11,AGGTGGTG,-0.188
12,CTATAGAA,-0.00745
13,GATGATCC,-0.027
14,GGTATTTA,0.0735
15,AAAAGAAG,0.19
16,GAACTTGA,0.0834
17,ACGGACCG,0.0517
18,ATGCTTTC,-0.0285
19,TAGTCGGA,-0.00577
20,AACGAGAA,0.00842
21,AACGAAAA,0.0335
22,CTTACGTA,0.12
23,CTAACTCC,-0.32
24,TTATCGAA,0.133
25,ATCGTAGA,-0.178

row,Sequence,PBM E-score
1,TACCTACA,0.0258
2,AACTTTCC,-0.161
3,ACTAACCG,-0.00647
4,ATAAGAAA,0.143
5,ACCCGAGT,-0.0668
6,GATTAACA,0.266
7,ACAAAGCG,0.217
8,GCTAGCGA,-0.106
9,ACGGAGAC,0.0753
10,AAGTTATA,0.21
11,GGCGTATA,0.129
12,ATGCTAGA,-0.0708
13,ACCGAACC,-0.247
14,TCATTAGA,0.0907
15,AGACCTGG,-0.232
16,TCGCGCCA,0.132
17,ATTACTAC,-0.161
18,ATTAGCAG,0.0629
19,CCATTGGC,-0.217
20,AGTTTCGA,-0.118
21,CGTAGGAA,-0.0469
22,ACAGCCGT,0.354
23,TCTAGTAA,0.252
24,CATCCTGG,-0.057
25,ATTACCGG,-0.165

row,Sequence,PBM E-score
1,ATGGATGG,-0.185
2,CGGCTCGA,0.252
3,CGACGTCC,-0.0499
4,CAGGGTTA,-0.166
5,ACTGTCAC,-0.0761
6,AGACATCA,-0.0861
7,AGGTGTTA,-0.063
8,AACATTGG,-0.281
9,GCTCGAGA,-0.105
10,ACGACGCT,-0.195
11,ACAATAAA,0.0704
12,CCCGTTAA,-0.15
13,ATAGCTAC,-0.198
14,GCCGTTGA,0.383
15,GCTTATGA,-0.114
16,GGCCATGA,-0.115
17,GTTGTACA,0.162
18,CGCATCCA,0.167
19,GTAGTGAC,0.01
20,GGCTGTAA,0.0912
21,AGGCATTA,0.228
22,CATCGACG,0.0261
23,AAGGGTCG,0.0331
24,GAGAACGA,-0.186
25,CGGGGTCC,-0.174

row,Sequence,PBM E-score
1,GCTCGATA,0.118
2,AGATCTCA,-0.117
3,TCTGAAGA,-0.0345
4,CGATTATC,-0.115
5,AAACAACA,-0.00459
6,ATAATTTG,0.128
7,ACGCCACC,-0.175
8,CGGGGATA,-0.202
9,CCACATCG,-0.069
10,AAGTTGTA,0.131
11,TCTCTGCA,-0.181
12,ACACGGCC,0.344
13,CCAACCAA,0.00122
14,TCGTAAAA,0.208
15,CGCTGAGC,0.0483
16,CCTACGAC,-0.165
17,TCATGCCA,0.165
18,CTATGGCA,0.159
19,CCTCTGCA,-0.00163
20,ACTAGCCG,-0.0183
21,AGGCGGTG,-0.0908
22,CAGCCCTC,-0.34
23,TCTTTTAA,0.0818
24,ATGGCACA,0.229
25,CCGTTGAG,0.00872

row,Sequence,PBM E-score
1,CTCTCCAA,0.0128
2,GACCGAAA,-0.0567
3,AGTTGGGC,0.0109
4,GGTTTTTA,-0.027
5,CAAAAGTA,0.188
6,AAGTCTCG,-0.199
7,CCGGAGGA,-0.435
8,ATGGGCTA,-0.0321
9,ACTAACTA,-0.217
10,ACCGTAAG,0.12
11,CCGCGGGA,0.218
12,ATCCTTCG,-0.0628
13,CACGATTA,-0.00784
14,CGCGACCA,0.031
15,GGTGGGTA,-0.0905
16,AGTCTGAC,-0.271
17,GATGGCAC,0.196
18,AAAACTGA,-0.0972
19,CTAACGCA,0.0301
20,GAGTCCAC,-0.128
21,ATTGCGGA,0.00404
22,CCGCAAGG,0.172
23,CACACGAG,0.0133
24,ATTTTGTA,0.202
25,AGATTATA,0.00022

row,Sequence,PBM E-score
1,AAACACGA,-0.0347
2,ATTCTCCG,0.0629
3,CAGCTTCA,-0.13
4,TCAGCGAA,-0.0708
5,ACTCGAAT,-0.0603
6,CGTAGCGA,0.0452
7,TTATCAAA,0.224
8,AAGAAGCA,-0.102
9,GCGCTACC,-0.113
10,ATTTAATA,0.241
11,AAATGGAA,-0.0376
12,GCGAGGCA,0.439
13,TATGAACA,0.0517
14,AAGACGCT,-0.13
15,CACAAAAG,0.212
16,CAGGGCTC,-0.191
17,CAGCCACC,-0.095
18,GTGAGGTA,-0.0324
19,CTCAGACC,-0.228
20,AGTAATAT,0.117
21,CTAATCGC,0.0179
22,CGAGAAAA,-0.077
23,GACAATAC,0.213
24,TAAGATGA,0.0182
25,ATCCGTAG,0.112

row,Sequence,PBM E-score
1,CTGCAATC,0.0171
2,CTACAGTA,0.0384
3,CTGTCAGA,-0.114
4,CCTCGACA,0.0231
5,AGCGTTAC,-0.126
6,GGAAATAC,-0.0887
7,AGTCCGAC,-0.182
8,AGAACGGA,0.102
9,ATGGAGAA,0.0747
10,CACCGTAA,0.00961
11,ATATAGAC,0.0693
12,ACGCAACG,0.236
13,CCCCAGAC,-0.31
14,CATCTCTC,-0.0636
15,AAAACTCG,0.0696
16,TCACTGAA,-0.068
17,CCTGCGCC,0.295
18,CCCAGGTC,-0.339
19,ATTCTTAC,0.0192
20,ATTAGAGG,-0.0638
21,AGTCGTTC,-0.115
22,AGATGGAT,-0.148
